This passage reports binding signal (log2 normalized intensity) results from PMC10726135.

This is one part of the list. At the low end of the ranking the order means little. Measured with an extract: partners may take part in the binding.

This test deals with T1, HNF4alpha8 (COS-7 nuclear extract) (UniProt P41235-5).
T1 sequence: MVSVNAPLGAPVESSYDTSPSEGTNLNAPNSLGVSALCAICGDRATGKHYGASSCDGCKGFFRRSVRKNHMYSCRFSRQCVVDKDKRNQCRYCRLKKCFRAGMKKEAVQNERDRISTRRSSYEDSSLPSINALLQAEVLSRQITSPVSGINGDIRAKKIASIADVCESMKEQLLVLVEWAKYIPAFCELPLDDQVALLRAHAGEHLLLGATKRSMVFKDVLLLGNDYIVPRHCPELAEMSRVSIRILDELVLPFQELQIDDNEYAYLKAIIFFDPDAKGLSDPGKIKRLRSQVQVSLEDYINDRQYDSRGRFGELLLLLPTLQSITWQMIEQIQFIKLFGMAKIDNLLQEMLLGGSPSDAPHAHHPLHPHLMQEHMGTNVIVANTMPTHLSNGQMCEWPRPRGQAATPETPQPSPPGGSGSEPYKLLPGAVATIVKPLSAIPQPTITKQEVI
In words: protein-binding microarray. The settings on record: COS-7 nuclear extract on double-stranded Agilent 4x180k PBM; binding buffer, salt, pH and temperature not given; high values mean tight binding; double strand, one strand shown; sequences stand for … in …GCCTAGGGAGATTAGAGTATCGGTCGA
In the case of ACTGACCACAATTACTGAAGTTCCAGAGCC, the binding signal (log2 normalized intensity) is -1.29.
The same measure for CCAGCACTTCGACCTCACATTGTAGCTAAA: 0.346; for AACAAGCAGCAAGGCCTGAATGAGCTCTGG: -1.29; for TATCATCAACATGCACTAGCAGTCCTATTT: -1.37.
Take CCACTTTGTCCTTCACTTGTAGGAGACCTT: the binding signal (log2 normalized intensity) turned out to be 2.3.
Turning to AATGCGCCTGGACAGATAAGAAGGGGTCAG, the binding signal (log2 normalized intensity) turned out to be 4.21.
For the sequence CAAGTTGCAGGGATGGACTTTAATCTCCAA, the binding signal (log2 normalized intensity) worked out at 5.83.
For the sequence ACCCCATTTTCCTAAAAATTATCTTTATCT, the binding signal (log2 normalized intensity) was -0.86.
The same measure for AAAGTGGTAGCCCACAATCAGTCTGATTGG: -1.3; for ATGGCGACAAGAGTGACCTCTGGTCATTCA: 4.55.
The same measure for TTCACAGAGCAAGGGTCCAGATTAGAGCAC: 2.52; for GTTCAATGCTTCAGTGAGCCTTGACCTTCA: 4.83; for AGGCGGCGGCTCCGGGAGCTGGCGGCGCGG: -1.38.
With TCTCTGTCCCAAGAGCAAGAAGGTCAGAGG, the binding signal (log2 normalized intensity) stood at 2.54.
TTCCAGTTTTGGAGAGGGGAACGATAAAAT: the binding signal (log2 normalized intensity) is -1.07.
In the case of CCTTTGCACCAGAGATAATATGCTTACTTA, the binding signal (log2 normalized intensity) is 0.614.
Take TATCCCAAGACATCAATTAACTTGTCCTTT: the binding signal (log2 normalized intensity) amounted to 2.79.
For the sequence CTGCTGCCCAAAGGTCACCTCTTCAGATAG, the binding signal (log2 normalized intensity) turned out to be 3.89.
As to TGTTTTGAGGGTTAAAGGAGATAATGGGTG, the binding signal (log2 normalized intensity) is 1.3.
The same measure for AGCAGGGCTAGACTTTAACCCCCTTGTCTT: 5.52; for GCAAGTCTCTTTTAGGCTGTCAGCCACCAA: -1.21.
As to ATAGGCGCGCGTGTGTGTGTGTGTGTGGTG, the binding signal (log2 normalized intensity) was found to be 2.86.
TTACTATAGGTTCTACTCTCCCCAGTTCAA: the binding signal (log2 normalized intensity) was 3.19.
GCCCACACTGCCCATCCCCACTGAAAGTGT: the binding signal (log2 normalized intensity) is 2.97.
With AGGGTCTTTGCAACTGTGTGTGGCCTGCAC, the binding signal (log2 normalized intensity) was found to be 1.53.
Turning to CAGAGATAAGGTAGGCACGTAAATAAGGAT, the binding signal (log2 normalized intensity) was -1.32.
As to CCTCCTCTCTGGGTCAAAGGTCATCGCACC, the binding signal (log2 normalized intensity) is 8.5.
Consider TATGTCTCTCCTATTCAGGTATTTGCTCTG, for which the binding signal (log2 normalized intensity) was 0.488.
On to ATGGCTCAGCCTGGCTGTGTAGACATCACC, for which the binding signal (log2 normalized intensity) was -1.51.
As to ATAAACCTGCCTACATCAAGAGGATTACAT, the binding signal (log2 normalized intensity) is -1.24.
The same measure for TTCAGGACACCTTCAGGGCTGAGCCCACAG: -1.36.
Turning to TGACGGACAAAGGGCTCTCTCACCAGAAAA, the binding signal (log2 normalized intensity) was -1.32.
The same measure for CGCGGAGCGGGGGACCGAGAGCCGCCGCCG: -1.36.
As for AAGTCCCACGGCAACCTTCCTGGAAACCTT, the binding signal (log2 normalized intensity) is -1.43.
Consider GCACCCCACCAAGGACTGGACCACCTCCTC, for which the binding signal (log2 normalized intensity) turned out to be 1.8.
The value for TTCCACTCTACCGTCCTCCCCCACGACAGA was 5.11; that for GGTGAAGATTGGAAATGAATTGATAAACAC was -1.25; that for AAGTAGGGGCTGCTGGCATCTCATTACTGA was -1.48.
As to CATCAGCCCTCCTAGCAAACAATGAGGACG, the binding signal (log2 normalized intensity) is -1.25.
In the case of GTAAGCCTGGTATTAATGAGGCAAAGGTCA, the binding signal (log2 normalized intensity) amounted to 5.76.
Turning to CCATTCTCAGGCAGATGGGCAGCACTGTGA, the binding signal (log2 normalized intensity) is -1.19.
Consider ATGGCACCCTTTTGTCAGGAAGTTCCCACA, for which the binding signal (log2 normalized intensity) is -0.603.
The same measure for GACCTCAGGGGTCATCAGATAGATGGTCAG: 3.3.
As to CGCAATGCATAGCAGAAACATAGAAAGGAG, the binding signal (log2 normalized intensity) was -1.44.
As to GGACAAAGTTCGTGGAAAGTGGAAGAATGG, the binding signal (log2 normalized intensity) amounted to 0.952.
As to CTCACCCTAAGCCCTGCTCAGGGAATGTGG, the binding signal (log2 normalized intensity) was -1.24.
Take TTGCATGAAGCACAAAGGTTACTTGCTCCT: the binding signal (log2 normalized intensity) was 1.98.
In the case of TGTTTATCTGCTGCCCTTCCCTCCACTATT, the binding signal (log2 normalized intensity) turned out to be 3.14.
Turning to TATGTACACTTGCCCTCTCACCAGAAGGGC, the binding signal (log2 normalized intensity) was found to be 1.18.
Turning to CAGCTTGGAATGTCAGGAACAACTTCGGGA, the binding signal (log2 normalized intensity) is -1.36.
TTATGGAGGAATTTGGACTTTTACTCTTAG: the binding signal (log2 normalized intensity) was 4.43.
Turning to AAGGAAATCTCTTTTGTTTTTCTTCAAGGA, the binding signal (log2 normalized intensity) worked out at 1.02.
The same measure for GATGGACCAAAGGTCTTGTACAAAGGTCCT: 3.85.
In the case of AGCAGGTCAATAGGGCAGGGGGGAGATGAA, the binding signal (log2 normalized intensity) came out at 1.78.
Regarding GGCAAGTGAGGGAGCCTAGATTAGATCAGA, the binding signal (log2 normalized intensity) is -1.37.
The same measure for TGGTCAGCTCCTGGGAGATGAGCTCTGAAC: 1.45; for TAAGTTGGTTTACTTATGTCTCCAGAAACC: 0.395; for GAGGGCTGCCAAAGCTCACAGATGTGGAAT: -1.21.
The same measure for CCCTCTCCTCCCTCGGCCGGCCCGGCAGCC: 0.527.
TCCTAGCCACCATGCTCGGCTGCCTCTCCA: the binding signal (log2 normalized intensity) is -1.32.
On to GGAAGCTGGGCACAAATTGGAGAGCATCTT, for which the binding signal (log2 normalized intensity) was -1.29.
On to TGGTAGGGGGGTGTTATCTCTGATGCCCTT, for which the binding signal (log2 normalized intensity) came out at 2.92.
Turning to CAGCATGTCTTCTGACCTTTGGCAATATCT, the binding signal (log2 normalized intensity) is 5.1.
As for TCGCTGCCTGCCCCTCTGACCTCTCCTCCT, the binding signal (log2 normalized intensity) came out at 4.32.
Regarding GGTGGCTTTTGCTGACATGCTCTTGGAATG, the binding signal (log2 normalized intensity) turned out to be 1.25.
Regarding TTTTTCACTGCTCACAGGTTGTACTATGAC, the binding signal (log2 normalized intensity) turned out to be 2.78.
For the sequence ACTGGTTTTTCAGATCCCTCTGGTGCTGAT, the binding signal (log2 normalized intensity) worked out at 0.981.
CTCTGCAGACTGGTGCTATGTCCCTGACTG: the binding signal (log2 normalized intensity) is -0.646.
In the case of TTTAAAATGTTTCAAAGTTTTTCCCCTTGG, the binding signal (log2 normalized intensity) came out at 1.75.
The same measure for CTTGGGGGAGGAGGGCAACCTTTGAACTGG: 6.02; for CTTTGAGTCCCAATCCCCCATCTATTTACA: 2.99.
For the sequence GTAGGAGCGGGCTTAACTAGGAGCCTGCAC, the binding signal (log2 normalized intensity) was -1.27.
For ATGGAGGCATCATAAACTCCAACTCAGCCC, the binding signal (log2 normalized intensity) was -1.26.
The value for TCCAGAAACCAACCTTTGATCATTCCTGCA was 4.94; that for GGACTTGATCCATTCTACCCCTGTGGTTGA was 2.5.
For the sequence AAACACACCCTTGGGGCTGATGTGCACAGT, the binding signal (log2 normalized intensity) is -0.869.
The value for ACACGAGCTGTGCGCTTAGTCCATGACGCA was -1.21; that for AGACTTAGGATCTAGCAAATTTGGGAGGGA was -1.34; that for GTCAGTCTGATTGGTTGGAGAAAGCAGCCA was -0.964.
Consider ATAGCAAAAGTGACCTTTGCTCCAGTTCCC, for which the binding signal (log2 normalized intensity) was determined as 8.52.
Turning to GAGAAGCCTGAAATGAGTTTCATTAGACAG, the binding signal (log2 normalized intensity) is -1.3.
TGGCTCGACAACGATTTGGGAAATGAAGGG: the binding signal (log2 normalized intensity) was -1.28.
For the sequence GCTCACTGCACCTTGACCTCCTGGGCCCAA, the binding signal (log2 normalized intensity) is 4.47.
Turning to CAAAGTCAGGTCAGTAGCCCAGGGTCACAC, the binding signal (log2 normalized intensity) was found to be 3.13.
For ATGTCTAAGGTTTCTCAGCCCCATCCCCCA, the binding signal (log2 normalized intensity) amounted to 5.45.
CAGGTTCAAAGGGCTTAATCTTTCCTGCCT: the binding signal (log2 normalized intensity) amounted to 1.84.
Consider GAATGTAAATAGCTAGGTACTTTGATCTAC, for which the binding signal (log2 normalized intensity) came out at 1.92.
In the case of AGATCAAGATTTTCAACTTGAGGAAGACAA, the binding signal (log2 normalized intensity) is -1.36.
With TTGGAGATAAAGGAACAGGCCCCAGGGACT, the binding signal (log2 normalized intensity) is -1.3.
In the case of TCTGGCCTTTTTTTTGTGTGTGTGTCAGAG, the binding signal (log2 normalized intensity) was determined as 2.69.
The value for ATACATTTTTAGGTGGATGCCTAGGATTCT was -0.709; that for TTGACCAAAGTACAGTAATTTCACTGATAT was 2.03.
On to TTTCCATTTACCTCCGCTGAACCTAGAGCT, for which the binding signal (log2 normalized intensity) was -1.03.
